The target of assay [1] is T1, human threonyl-tRNA synthetase, Strep-tagged (TRS-Strep) (human) (UniProt P26639).
T1 sequence: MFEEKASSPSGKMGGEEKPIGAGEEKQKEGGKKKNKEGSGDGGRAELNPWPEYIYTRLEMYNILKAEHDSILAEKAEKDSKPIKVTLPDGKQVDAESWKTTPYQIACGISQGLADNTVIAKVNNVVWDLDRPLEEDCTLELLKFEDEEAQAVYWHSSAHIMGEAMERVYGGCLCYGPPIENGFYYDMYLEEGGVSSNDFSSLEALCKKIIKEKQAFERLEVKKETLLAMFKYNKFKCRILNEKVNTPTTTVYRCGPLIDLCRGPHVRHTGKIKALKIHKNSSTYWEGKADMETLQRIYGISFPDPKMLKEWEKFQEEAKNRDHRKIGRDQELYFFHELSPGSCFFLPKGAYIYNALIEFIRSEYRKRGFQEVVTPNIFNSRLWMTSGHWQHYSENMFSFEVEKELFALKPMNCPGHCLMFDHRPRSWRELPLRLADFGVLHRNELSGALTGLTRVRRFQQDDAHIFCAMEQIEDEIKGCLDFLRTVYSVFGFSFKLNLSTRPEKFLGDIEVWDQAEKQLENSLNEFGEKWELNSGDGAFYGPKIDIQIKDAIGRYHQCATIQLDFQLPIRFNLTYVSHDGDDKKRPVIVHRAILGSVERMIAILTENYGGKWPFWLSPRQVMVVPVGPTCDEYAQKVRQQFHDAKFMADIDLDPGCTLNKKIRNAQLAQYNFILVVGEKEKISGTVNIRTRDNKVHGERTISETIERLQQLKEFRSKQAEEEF
Put plainly: pull-down; TRS-Strep co-expressed with FLAG-tagged proteins in 293T; pulled down with Strep-Tactin beads; anti-FLAG immunoblot.

Protein sequences, listed by entry. Tags and fused reporters are not part of them.
UniProt Q04637: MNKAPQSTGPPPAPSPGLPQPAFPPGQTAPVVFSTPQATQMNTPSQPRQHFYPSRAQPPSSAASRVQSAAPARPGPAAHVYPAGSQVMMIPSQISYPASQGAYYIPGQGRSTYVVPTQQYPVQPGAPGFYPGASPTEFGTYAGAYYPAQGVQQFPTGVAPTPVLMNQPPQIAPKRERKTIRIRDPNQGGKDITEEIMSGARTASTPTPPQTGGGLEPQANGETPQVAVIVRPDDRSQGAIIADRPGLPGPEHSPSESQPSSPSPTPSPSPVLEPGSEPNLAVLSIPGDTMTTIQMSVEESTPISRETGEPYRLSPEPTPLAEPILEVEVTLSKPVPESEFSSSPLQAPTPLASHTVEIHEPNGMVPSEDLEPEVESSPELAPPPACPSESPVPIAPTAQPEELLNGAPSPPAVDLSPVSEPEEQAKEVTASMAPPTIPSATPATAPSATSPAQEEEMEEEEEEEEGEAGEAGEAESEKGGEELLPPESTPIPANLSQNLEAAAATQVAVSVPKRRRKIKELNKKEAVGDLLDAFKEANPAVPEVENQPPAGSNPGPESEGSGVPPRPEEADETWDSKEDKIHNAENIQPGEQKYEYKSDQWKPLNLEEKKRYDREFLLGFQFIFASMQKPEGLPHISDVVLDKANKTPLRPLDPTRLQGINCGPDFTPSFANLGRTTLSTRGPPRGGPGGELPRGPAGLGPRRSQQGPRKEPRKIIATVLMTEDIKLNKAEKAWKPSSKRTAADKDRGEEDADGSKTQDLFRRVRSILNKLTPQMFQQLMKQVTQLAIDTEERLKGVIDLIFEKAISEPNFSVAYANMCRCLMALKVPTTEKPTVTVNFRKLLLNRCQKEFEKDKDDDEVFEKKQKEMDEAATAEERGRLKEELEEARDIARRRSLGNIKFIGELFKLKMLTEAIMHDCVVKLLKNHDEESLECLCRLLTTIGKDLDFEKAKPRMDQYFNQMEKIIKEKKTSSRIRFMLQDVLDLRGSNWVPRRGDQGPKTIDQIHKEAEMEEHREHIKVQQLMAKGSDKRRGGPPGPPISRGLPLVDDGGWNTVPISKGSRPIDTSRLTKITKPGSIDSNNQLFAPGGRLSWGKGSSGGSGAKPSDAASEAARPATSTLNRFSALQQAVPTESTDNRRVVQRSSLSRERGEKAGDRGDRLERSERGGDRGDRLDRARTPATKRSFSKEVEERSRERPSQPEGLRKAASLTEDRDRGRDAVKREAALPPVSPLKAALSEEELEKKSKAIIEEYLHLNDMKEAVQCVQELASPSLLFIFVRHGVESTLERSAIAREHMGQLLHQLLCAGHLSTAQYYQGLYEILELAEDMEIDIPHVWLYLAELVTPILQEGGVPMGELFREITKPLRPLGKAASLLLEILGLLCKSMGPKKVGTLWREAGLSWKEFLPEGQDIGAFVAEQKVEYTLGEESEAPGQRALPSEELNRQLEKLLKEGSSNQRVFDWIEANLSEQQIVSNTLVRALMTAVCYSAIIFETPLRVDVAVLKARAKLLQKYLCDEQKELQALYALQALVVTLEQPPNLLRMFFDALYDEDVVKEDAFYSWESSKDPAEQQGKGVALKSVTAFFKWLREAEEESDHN
UniProt P55884: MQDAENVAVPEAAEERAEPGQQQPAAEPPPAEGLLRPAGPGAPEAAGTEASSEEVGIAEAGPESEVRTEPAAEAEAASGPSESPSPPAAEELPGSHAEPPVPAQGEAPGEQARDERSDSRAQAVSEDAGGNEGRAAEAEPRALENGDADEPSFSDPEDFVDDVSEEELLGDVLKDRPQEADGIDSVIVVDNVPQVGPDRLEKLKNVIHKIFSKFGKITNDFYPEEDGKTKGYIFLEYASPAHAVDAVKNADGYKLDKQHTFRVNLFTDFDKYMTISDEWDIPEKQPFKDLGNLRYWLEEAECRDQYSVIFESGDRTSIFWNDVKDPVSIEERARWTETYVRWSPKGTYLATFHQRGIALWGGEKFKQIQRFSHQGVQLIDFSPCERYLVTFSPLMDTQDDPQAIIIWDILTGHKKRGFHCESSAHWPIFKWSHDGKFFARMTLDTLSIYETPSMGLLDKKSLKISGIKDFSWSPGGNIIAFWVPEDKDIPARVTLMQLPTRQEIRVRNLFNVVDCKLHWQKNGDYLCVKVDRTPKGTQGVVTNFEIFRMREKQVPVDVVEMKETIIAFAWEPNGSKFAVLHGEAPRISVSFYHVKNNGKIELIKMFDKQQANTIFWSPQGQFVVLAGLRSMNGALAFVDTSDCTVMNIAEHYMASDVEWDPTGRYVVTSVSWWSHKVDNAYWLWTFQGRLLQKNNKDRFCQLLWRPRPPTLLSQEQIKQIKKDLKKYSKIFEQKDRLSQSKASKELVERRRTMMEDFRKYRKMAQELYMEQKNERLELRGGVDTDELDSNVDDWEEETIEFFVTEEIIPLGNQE
UniProt O15371: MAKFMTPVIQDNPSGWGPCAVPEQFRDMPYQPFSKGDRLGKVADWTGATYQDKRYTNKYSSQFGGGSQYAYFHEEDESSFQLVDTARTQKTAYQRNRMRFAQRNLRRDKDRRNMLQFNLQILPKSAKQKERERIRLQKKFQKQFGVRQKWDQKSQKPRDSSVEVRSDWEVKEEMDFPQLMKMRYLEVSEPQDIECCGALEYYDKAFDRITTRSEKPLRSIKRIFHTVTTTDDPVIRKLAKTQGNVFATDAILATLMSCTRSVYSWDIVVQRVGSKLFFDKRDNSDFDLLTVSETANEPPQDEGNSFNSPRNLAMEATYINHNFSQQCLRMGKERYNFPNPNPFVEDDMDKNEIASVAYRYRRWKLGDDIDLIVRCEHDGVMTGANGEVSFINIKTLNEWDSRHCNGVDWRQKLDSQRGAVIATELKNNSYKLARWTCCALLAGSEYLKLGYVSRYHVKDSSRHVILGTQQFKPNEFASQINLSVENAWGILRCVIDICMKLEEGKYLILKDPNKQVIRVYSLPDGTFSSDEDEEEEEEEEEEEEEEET
UniProt P60228: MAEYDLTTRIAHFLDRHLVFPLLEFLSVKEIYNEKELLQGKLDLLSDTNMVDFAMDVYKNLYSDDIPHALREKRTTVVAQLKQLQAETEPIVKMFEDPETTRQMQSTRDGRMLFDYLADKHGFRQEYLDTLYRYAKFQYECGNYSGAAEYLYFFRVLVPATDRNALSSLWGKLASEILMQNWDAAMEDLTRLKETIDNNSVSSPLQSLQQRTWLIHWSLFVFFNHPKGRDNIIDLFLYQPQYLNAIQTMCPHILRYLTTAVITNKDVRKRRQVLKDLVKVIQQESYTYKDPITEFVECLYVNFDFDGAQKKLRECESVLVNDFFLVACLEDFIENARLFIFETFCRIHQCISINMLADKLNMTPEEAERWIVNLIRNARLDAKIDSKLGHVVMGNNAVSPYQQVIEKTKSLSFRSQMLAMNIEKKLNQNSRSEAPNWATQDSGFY
UniProt O00303: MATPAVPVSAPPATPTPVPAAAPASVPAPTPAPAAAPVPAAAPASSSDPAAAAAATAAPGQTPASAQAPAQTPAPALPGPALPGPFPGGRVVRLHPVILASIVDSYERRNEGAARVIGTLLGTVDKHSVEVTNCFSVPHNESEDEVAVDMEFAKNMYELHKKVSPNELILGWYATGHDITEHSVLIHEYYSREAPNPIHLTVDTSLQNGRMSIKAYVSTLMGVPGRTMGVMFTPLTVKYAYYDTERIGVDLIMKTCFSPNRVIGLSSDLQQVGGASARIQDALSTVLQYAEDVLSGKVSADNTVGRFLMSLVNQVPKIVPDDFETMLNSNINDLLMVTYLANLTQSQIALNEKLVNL
UniProt Q9Y262: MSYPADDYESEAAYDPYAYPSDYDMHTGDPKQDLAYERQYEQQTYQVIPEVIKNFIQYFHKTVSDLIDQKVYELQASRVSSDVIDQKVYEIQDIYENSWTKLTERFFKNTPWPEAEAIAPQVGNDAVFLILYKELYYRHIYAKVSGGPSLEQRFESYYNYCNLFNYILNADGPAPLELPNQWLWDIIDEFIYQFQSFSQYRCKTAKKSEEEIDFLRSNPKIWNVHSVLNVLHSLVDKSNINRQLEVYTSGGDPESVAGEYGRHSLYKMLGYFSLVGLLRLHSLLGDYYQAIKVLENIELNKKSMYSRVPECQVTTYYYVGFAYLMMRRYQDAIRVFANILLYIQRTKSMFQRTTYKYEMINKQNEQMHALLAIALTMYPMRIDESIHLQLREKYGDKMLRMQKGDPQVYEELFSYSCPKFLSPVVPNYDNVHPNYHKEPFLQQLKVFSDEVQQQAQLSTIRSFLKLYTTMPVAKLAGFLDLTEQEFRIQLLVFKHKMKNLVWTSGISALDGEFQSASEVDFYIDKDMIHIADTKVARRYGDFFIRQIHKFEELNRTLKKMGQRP
UniProt P60842: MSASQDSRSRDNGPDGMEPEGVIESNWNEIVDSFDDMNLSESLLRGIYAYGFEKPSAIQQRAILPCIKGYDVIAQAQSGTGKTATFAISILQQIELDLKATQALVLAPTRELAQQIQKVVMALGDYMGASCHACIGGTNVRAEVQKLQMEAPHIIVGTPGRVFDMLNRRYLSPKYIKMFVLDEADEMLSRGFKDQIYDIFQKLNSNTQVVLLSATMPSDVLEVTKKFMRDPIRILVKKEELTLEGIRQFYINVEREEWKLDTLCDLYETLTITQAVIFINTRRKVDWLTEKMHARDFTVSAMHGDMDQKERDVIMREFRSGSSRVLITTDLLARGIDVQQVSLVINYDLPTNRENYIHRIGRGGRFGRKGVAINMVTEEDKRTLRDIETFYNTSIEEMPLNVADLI

Assay [2] has as its target T2, endogenous human TRS (human (endogenous in WI-26 and 293T)) (UniProt P26639).
T2 sequence: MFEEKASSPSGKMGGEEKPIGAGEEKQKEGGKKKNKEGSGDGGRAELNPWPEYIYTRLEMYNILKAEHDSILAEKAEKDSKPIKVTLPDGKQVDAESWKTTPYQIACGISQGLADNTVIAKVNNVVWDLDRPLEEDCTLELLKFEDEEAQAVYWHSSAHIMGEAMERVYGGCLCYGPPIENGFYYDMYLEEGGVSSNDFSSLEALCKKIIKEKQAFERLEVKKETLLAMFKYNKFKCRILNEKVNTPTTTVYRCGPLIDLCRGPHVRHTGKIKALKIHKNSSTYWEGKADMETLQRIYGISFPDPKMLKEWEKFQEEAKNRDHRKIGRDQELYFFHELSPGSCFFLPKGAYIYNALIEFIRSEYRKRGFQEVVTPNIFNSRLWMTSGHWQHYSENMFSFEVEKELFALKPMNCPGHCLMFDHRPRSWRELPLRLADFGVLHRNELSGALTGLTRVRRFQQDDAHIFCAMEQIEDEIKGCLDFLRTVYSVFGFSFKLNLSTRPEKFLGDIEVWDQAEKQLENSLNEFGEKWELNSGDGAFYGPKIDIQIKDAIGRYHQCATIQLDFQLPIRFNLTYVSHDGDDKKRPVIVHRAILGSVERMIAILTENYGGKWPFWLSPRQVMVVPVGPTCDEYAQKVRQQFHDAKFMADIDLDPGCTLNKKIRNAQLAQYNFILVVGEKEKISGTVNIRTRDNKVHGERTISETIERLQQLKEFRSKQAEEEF
Put plainly: co-IP; endogenous proteins in WI-26 cell lysates; anti-TRS or anti-4EHP immunoprecipitation; rabbit or mouse IgG as negative control.

For assay [3], the target named is T3, mouse Myc-TRS (mouse) (UniProt Q9D0R2).
T3 sequence: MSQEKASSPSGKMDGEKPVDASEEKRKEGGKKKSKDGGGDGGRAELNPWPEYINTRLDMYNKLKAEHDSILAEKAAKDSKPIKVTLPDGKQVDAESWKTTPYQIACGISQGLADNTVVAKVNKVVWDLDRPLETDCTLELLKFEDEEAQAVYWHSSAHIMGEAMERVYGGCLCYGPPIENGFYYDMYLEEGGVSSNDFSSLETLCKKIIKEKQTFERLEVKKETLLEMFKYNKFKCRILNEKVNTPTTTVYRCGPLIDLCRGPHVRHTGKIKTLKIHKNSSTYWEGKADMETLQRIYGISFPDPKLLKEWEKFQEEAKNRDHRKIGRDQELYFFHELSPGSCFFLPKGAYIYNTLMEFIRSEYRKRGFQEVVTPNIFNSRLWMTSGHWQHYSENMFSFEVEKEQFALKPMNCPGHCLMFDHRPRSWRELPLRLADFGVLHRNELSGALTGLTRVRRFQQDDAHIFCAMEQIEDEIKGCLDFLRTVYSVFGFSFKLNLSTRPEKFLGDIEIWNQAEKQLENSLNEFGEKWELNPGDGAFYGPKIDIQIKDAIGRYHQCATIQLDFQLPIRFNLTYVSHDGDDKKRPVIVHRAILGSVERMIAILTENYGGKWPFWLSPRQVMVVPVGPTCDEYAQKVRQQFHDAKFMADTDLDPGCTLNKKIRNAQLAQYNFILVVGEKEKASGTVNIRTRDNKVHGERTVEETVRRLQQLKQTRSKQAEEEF
Put plainly: co-IP; Myc-TRS and HA-4EHP (or other tagged proteins) co-expressed in 293T; anti-Myc or anti-HA immunoprecipitation; tag-specific immunoblot.

Assay [4] addresses T4, nematode Myc-TRS (nematode) (UniProt P52709).
T4 sequence: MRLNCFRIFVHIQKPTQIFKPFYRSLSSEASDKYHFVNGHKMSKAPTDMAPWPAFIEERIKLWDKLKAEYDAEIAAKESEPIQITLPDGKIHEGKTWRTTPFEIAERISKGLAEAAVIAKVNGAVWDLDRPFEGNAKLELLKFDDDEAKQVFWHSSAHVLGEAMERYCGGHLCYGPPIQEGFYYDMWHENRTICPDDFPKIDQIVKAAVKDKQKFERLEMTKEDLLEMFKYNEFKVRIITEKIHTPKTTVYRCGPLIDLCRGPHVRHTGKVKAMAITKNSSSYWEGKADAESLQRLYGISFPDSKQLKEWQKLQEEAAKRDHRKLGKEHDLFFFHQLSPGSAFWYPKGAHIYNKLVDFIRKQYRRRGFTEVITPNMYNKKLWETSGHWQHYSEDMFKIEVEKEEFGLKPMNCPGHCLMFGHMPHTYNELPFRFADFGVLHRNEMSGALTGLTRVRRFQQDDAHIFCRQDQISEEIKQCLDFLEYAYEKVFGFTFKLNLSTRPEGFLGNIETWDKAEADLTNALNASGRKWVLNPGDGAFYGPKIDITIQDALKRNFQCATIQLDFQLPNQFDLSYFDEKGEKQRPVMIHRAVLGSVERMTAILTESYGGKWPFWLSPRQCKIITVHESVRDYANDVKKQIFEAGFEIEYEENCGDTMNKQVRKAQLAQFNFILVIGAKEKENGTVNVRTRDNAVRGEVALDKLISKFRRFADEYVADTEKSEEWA
The description is as above.

In assay [5] the target is LexA-human TRS fusion protein (human) (UniProt P26639). Put plainly: two-hybrid; yeast LexA-B42 screen; LexA-human TRS as bait against a HeLa cDNA library of B42 fusions.

Results are given in words; binding and its absence hold for the method and conditions named. For some of these results: In cells and extracts the contact can be indirect. Some entries that bind do so weakly or less than the wild type. For some of these results: Sequences can lack the tags named with a protein.

With “eIF4G-FLAG (human eIF4G1) (from UniProt Q04637 1-1599)”, the binding result in assay [1] is reported as “no binding”.

Regarding “endogenous human eIF3 subunit B (from UniProt P55884 1-814)”, the binding result in assay [2] is listed as “binds”.

For “endogenous human eIF3 subunit D (from UniProt O15371 1-548)”, in assay [2], the binding entry was “binds”.

Consider “endogenous human eIF3 subunit E (from UniProt P60228 1-445)”, for which the binding result in assay [2] is recorded as “binds”.

Consider “endogenous human eIF3 subunit F (from UniProt O00303 1-357)”, for which the binding result in assay [2] is reported as “binds”.

Consider “endogenous human eIF3 subunit L (from UniProt Q9Y262 1-564)”, for which the binding entry in assay [2] is given as “binds”.

Regarding “endogenous human eIF4A (from UniProt P60842 1-406) (enzyme)”, in assay [2], the binding entry is given as “binds”.

B1: mouse HA-4EHP (protein, UniProt Q8BMB3 1-245)
chain: MNNKFDALKDDDSGDHDQNEENSTQKDGEKEKTDRDKSQSSGKRKAVVPGPAEHPLQYNYTFWYSRRTPGRPTSSQSYEQNIKQIGTFASVEQFWKFYSHMVRPGDLTGHSDFHLFKEGIKPMWEDDANKNGGKWIIRLRKGLASRCWENLILAMLGEQFMVGEEICGAVVSVRFQEDIISIWNKTASDQATTARIRDTLRRVLNLPPNTIMEYKTHTDSIKMPGRLGPQRLLFQNLWKPRLNVP
Turning to B1, the binding entry in assay [3] is “binds”.

B2: nematode HA-4EHP (protein, UniProt Q22888 1-212)
chain: MEAETSTQEVVKQVKNLPILMEDAPVGSDDHQLQYSYTFSYFMRPTGKFDPEDYASYVQPVGIMKSVEQFWSIMVHFKRPTEMCDKADIHFFKTGVKPVWEDPANCKGGKWIIRLKKGLSTRIWENLLMAIIGEQFLVGDELCGAVCSIRNQEDIISLWNRNADDTPVTNRIRETLRSVLQLPQNTVLEYKRHDDCLRDQSSYRHTTKNICK
Consider B2, for which the binding entry in assay [4] is “no binding”.

B3: LexA-human TRS fusion protein (enzyme, UniProt P26639 1-723)
chain: MFEEKASSPSGKMGGEEKPIGAGEEKQKEGGKKKNKEGSGDGGRAELNPWPEYIYTRLEMYNILKAEHDSILAEKAEKDSKPIKVTLPDGKQVDAESWKTTPYQIACGISQGLADNTVIAKVNNVVWDLDRPLEEDCTLELLKFEDEEAQAVYWHSSAHIMGEAMERVYGGCLCYGPPIENGFYYDMYLEEGGVSSNDFSSLEALCKKIIKEKQAFERLEVKKETLLAMFKYNKFKCRILNEKVNTPTTTVYRCGPLIDLCRGPHVRHTGKIKALKIHKNSSTYWEGKADMETLQRIYGISFPDPKMLKEWEKFQEEAKNRDHRKIGRDQELYFFHELSPGSCFFLPKGAYIYNALIEFIRSEYRKRGFQEVVTPNIFNSRLWMTSGHWQHYSENMFSFEVEKELFALKPMNCPGHCLMFDHRPRSWRELPLRLADFGVLHRNELSGALTGLTRVRRFQQDDAHIFCAMEQIEDEIKGCLDFLRTVYSVFGFSFKLNLSTRPEKFLGDIEVWDQAEKQLENSLNEFGEKWELNSGDGAFYGPKIDIQIKDAIGRYHQCATIQLDFQLPIRFNLTYVSHDGDDKKRPVIVHRAILGSVERMIAILTENYGGKWPFWLSPRQVMVVPVGPTCDEYAQKVRQQFHDAKFMADIDLDPGCTLNKKIRNAQLAQYNFILVVGEKEKISGTVNIRTRDNKVHGERTISETIERLQQLKEFRSKQAEEEF
In the case of B3, in assay [5], the binding result is “binds”.

These data come from article PMC6430810 (2019).
